PubChem BioAssay AID1159614 (National Center for Advancing Translational Sciences (NCATS), 2016)
The campaign covered roughly 45,000 compounds. About 65 (0.1%) were called active. Calls come from the whole dose curve; as a rule, active = well fitted activation curve with a large enough effect; inconclusive = small, poorly fitted or top-dose-only effect; inactive = no such curve, though single readings can be large or run the other way. This is one part of the list.

biological target: Galactocerebrosidase (Homo sapiens) (UniProt P54803); assay: A Novel Cell-Based Assay to Identify Small Molecules for B -Galactocerebrosidase; conditions: 145M-Twi-hGALC-G270D cells (Twitcher mouse brain line with human GALC G270D), HMU-beta-Gal fluorescence, 48 h; series mostly up to 57.5 µM; activation: at the top concentration; note: 0% is about no effect; nearly all actives have a fitted effect of over 65% in size
UniProt P54803, sequence (P54803 whole entry, looked up): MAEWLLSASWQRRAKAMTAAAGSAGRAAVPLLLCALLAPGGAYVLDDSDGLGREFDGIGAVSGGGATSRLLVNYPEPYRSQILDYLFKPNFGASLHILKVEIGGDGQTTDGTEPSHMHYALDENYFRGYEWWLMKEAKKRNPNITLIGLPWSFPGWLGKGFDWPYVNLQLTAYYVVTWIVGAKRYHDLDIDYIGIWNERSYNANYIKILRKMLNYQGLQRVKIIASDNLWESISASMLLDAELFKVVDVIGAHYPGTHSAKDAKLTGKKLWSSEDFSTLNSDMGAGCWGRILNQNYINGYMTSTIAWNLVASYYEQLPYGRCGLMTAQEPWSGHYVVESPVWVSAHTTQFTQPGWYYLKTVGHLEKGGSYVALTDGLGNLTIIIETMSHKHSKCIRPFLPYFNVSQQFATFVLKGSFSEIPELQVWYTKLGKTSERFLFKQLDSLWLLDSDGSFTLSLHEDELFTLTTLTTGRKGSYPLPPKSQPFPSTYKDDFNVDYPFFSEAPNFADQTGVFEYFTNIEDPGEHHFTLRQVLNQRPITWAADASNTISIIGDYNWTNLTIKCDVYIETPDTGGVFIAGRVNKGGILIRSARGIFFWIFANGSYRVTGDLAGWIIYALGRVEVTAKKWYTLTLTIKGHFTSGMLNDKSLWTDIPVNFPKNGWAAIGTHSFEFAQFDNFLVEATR
In short: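 Fluorogenic HMU-b-Gal hydrolysis (0.1 mM final, pH 5.2 citrate-phosphate with 1 mg/mL sodium taurocholate; carbonate stop buffer) measures mutant GALC activity after compound treatment of live 145M-Twi Twitcher brain cells stably carrying human GALC-G270D, with wild-type GALC line alongside; activation sought.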

activation, inactive:
Nc1c(-c2nc(-c3ccc(Cl)cc3)no2)nnn1-c1ccc(C(F)(F)F)c(Cl)c1 -5.57%
Cc1cccc(C)c1OCc1nc2c3cnn(-c4ccccc4Br)c3ncn2n1 4.8%
O=C(CSc1nc2c([nH]c3ccccc32)c(=O)n1-c1ccc(F)cc1)N1CCCc2ccccc21 -1.42%
CCOC(=O)Cn1c(=O)n(C2CCCCC2)c2nc(-c3ccccc3Cl)nc(C(N)=O)c21 16%
CCC(CC)C(=O)Nc1nnc2n1CCS2 -13%
COc1ccc(CCN2C(=O)c3[nH]nc(-c4ccccc4O)c3C2c2ccc(O)c(OC)c2)cc1 (stereo unspecified) -9.31%
COc1ccc(-c2c(C)nn3c(-c4ccccc4)cc(-c4ccccc4)nc23)cc1OC -18.8%
COC(=O)c1ccc(NC(=O)CCNS(=O)(=O)c2cccc3nsnc23)cc1 1.96%
O=C(NC1CCCCC1)c1cc(Nc2ccccc2)nc2ccccc12 -16%
COc1ccccc1C(=O)NCC1(N2CCN(C)CC2)CCCCC1 -14.1%
Cc1ccc(C)c(NC(=O)N2CCC(N3CCN(Cc4ccc(F)cc4)C(=O)C3=O)CC2)c1 -14.1%
COc1ccccc1CNC(=O)c1ccc(CN2CC(=O)N3CCCCC3C2=O)cc1 (stereo unspecified) -21.9%
CCN(CC)c1ccc(NC(=O)CN2CCN(CC(=O)Nc3ccccc3OC)CC2)cc1 -19.1%
Cc1cc2c(cc1S(=O)(=O)N(C)CC(=O)Nc1cccc(C#N)c1)OCC(=O)N2 -9.86%
CC1=Nc2cc(C(=O)NC3CCCC3)ccc2Sc2ccc(Br)cc21 -9.46%
COCCCNC(=O)C1CCCN(S(=O)(=O)c2ccc3c(c2)oc(=O)n3C)C1 (stereo unspecified) -2.68%
CCOC(=O)c1cccc(NC(=O)CCn2nc(C)c3c(C)n(-c4ccccc4)nc3c2=O)c1 -22.2%
CCOCCCNC(=O)c1c[nH]c2ccc(S(=O)(=O)Nc3cccc(Cl)c3C)cc2c1=O -13.3%
Cn1c(=O)oc2cc(S(=O)(=O)N3CCCC(C(=O)N4CCN(c5ccccc5F)CC4)C3)ccc21 (stereo unspecified) -7.7%
CCOC(=O)N1CCc2c(sc3c2c(=O)n(-c2ccc(Cl)cc2)c(=O)n3Cc2cccc(C)c2)C1 -7.89%
Cc1c(NC(=O)c2ccccc2)cc(C(C)C)c(O)c1S(=O)(=O)c1ccc(Cl)cc1 -11.6%
Fc1ccc(Nc2ncnc3c2nc2n3CCCC2)cc1 -1.68%
CCOCCCn1c(SCC(=O)NCCCOC)nc2c(sc3ccccc32)c1=O 33%
Cc1ccccc1Nc1cc(C(=O)NC2CCCCC2)c2ccccc2n1 -14.2%
CSc1cccc(Nc2cc(C(=O)NCCCN(Cc3ccccc3)C(C)C)c3ccccc3n2)c1 -13.2%
COc1ccccc1N1CCN(S(=O)(=O)c2cc3[nH]c(=O)c(=O)[nH]c3cc2C)CC1 1.78%
O=C(NCCS(=O)(=O)N1CCN(c2ccc(F)cc2)CC1)c1cc(=O)c2ccccc2o1 1.32%
Cc1ccc(C)c(NC(=O)C(Cc2ccccc2)N2Cc3ccccc3C2=O)c1 (stereo unspecified) -9.91%
Cc1ccc(CCNc2ncnc3onc(C)c23)cc1 -17.4%
Cc1ccc2occ(CC(=O)N(Cc3ccc(N(C)C)cc3)C3CCS(=O)(=O)C3)c2c1 (stereo unspecified) -16.7%
CCOc1ccc(CNC(=O)CCC(=O)N2CCSc3ccccc32)cc1 3.9%
Cc1ccc(Cl)cc1N(C)C(=O)c1cnc(N2CCOCC2)c2ccccc12 8.19%
COc1ccc(N2CCN(C(=O)c3ccc4nc(N5CCC(C)CC5)sc4c3)CC2)cc1 -13.4%
CCN(CC)C(=O)C1CCCN(c2ncnc3onc(C)c23)C1 (stereo unspecified) -11.3%
COC(=O)c1cc2oc3ccccc3c2n1Cc1c(F)cccc1Cl -4.85%
COc1ccc2nc(N3CCN(C(=O)C4CC4)CC3)sc2c1 -14.9%
COc1ccc(NC(=O)N2CCc3c([nH]c4ccc(OC)cc34)C2c2ccc(OC)cc2)cc1 (stereo unspecified) -12.3%
CCc1cccc(NC(=O)CN2CCCN(Cc3cccc(C)c3)S2(=O)=O)c1 -8.48%
CC(NC(=O)c1sc2ncccc2c1-n1cccc1)c1ccccc1 (stereo unspecified) -27.9%
COc1cccc(-c2nc3c(C#N)c[nH]n3c2NC2CCCCC2)c1OC -14.2%
Cc1ccc(Cn2c(=O)n(CC3CCC(C(=O)N4CCOCC4)CC3)c(=O)c3sccc32)cc1 (stereo unspecified) -9.17%
COc1cc(Nc2c(C#N)cnc3cc(OCCCN4CCN(C)CC4)c(OC)cc23)c(Cl)cc1Cl -22.3%
O=C(NCC(c1cccnc1)N1CCN(Cc2ccccc2)CC1)C(=O)Nc1cccc(F)c1 (stereo unspecified) -18.7%
CCOC(=O)CC(NC(=O)Cn1nnc(-c2ccc(C(F)(F)F)cc2)n1)c1ccc(C)cc1 (stereo unspecified) -9.42%
O=C(CC1Oc2ccc(Cl)cc2NC1=O)NCc1ccccc1 (stereo unspecified) -21.2%
COCCN1C(=O)N(c2cccc(OC)c2)C(=O)C1CC(=O)Nc1ccccc1 (stereo unspecified) -9.32%
COc1cc2ccccc2cc1C(=O)N1CCN(c2nc3c(F)cccc3s2)CC1 -2.98%
O=C(NCc1ccc(Cl)cc1)C(=O)NCC(c1ccc2c(c1)OCO2)N1CCOCC1 (stereo unspecified) -7.6%
CC(=O)Nc1ccc(NC(=O)c2csnn2)cc1 -8.8%
CCCCc1nn2c(=O)cc(COC(=O)c3cccc(NC(=O)c4cccs4)c3)nc2s1 0.681%
CCN(CC)C(=O)c1sc2c(c1C)c(=O)n(-c1ccc(C)c(C)c1)c(=O)n2CC(=O)Nc1ccc(OC)cc1OC -26.1%
Cc1cc(F)ccc1NC(=O)CCS(=O)(=O)c1cc2c3c(c1)CCN3C(=O)CC2 0.0197%
COc1ccc(OC)c(CNS(=O)(=O)c2cc(-c3onc(C)c3C)ccc2C)c1 -8.29%
O=C(c1ccccc1)N1CCC(c2nc3ccccc3o2)CC1 -2.09%
CCOc1ccc2c(c1)c(=O)c(C(=O)c1ccccc1)cn2Cc1ccccc1F -21.6%
CC(=O)c1ccc(NC(=O)c2cc3c([nH]c2=O)CC(c2ccccc2)CC3=O)cc1 (stereo unspecified) -16.6%
CN1C(=O)Cc2cc(S(=O)(=O)CCC(=O)Nc3ccc(Cl)cc3)ccc21 -9.83%
COc1ccc(CCNC(=O)c2cnn(-c3cccc(C)c3)c2C2CCNCC2)cc1OC -20.3%
Cc1ccc(S(=O)(=O)c2[nH]c(-c3ccccc3)nc2SC(C)C(=O)O)cc1 (stereo unspecified) -11.9%
COc1ccc(N2CCN(CCCNC(=O)c3nnc(Cc4ccccc4Cl)o3)CC2)cc1 -10.5%
CCS(=O)(=O)N1CC(=O)N(c2cc(C)cc(C)c2)C(C)(C(=O)NC2CCCCC2)C1 (stereo unspecified) -10.3%
Cc1cc(C)n2c(Nc3ccc4c(c3)OCCO4)c(-c3ccccc3)nc2n1 -17.7%
CC(=O)c1ccc(NC(=O)CSc2nnc(-c3ccncc3)n2-c2ccccc2)cc1 -11%
COc1ccc(/C=C/C(=O)Nc2cc(-c3nc4ccccc4o3)ccc2OC)cc1 -14.4%
Oc1c(Cl)cc(Cl)c2cccnc12 -19.1%
COc1ccc(CNC(=O)C2CCN(C(=O)c3cnn(-c4ccccc4)c3-n3cccc3)CC2)cc1 -30.2%
Cc1ccc(NC(=O)CSc2nnc(-c3cc4occc4n3C)n2-c2ccccc2C)c(C)c1 -7.94%
FC(F)(F)c1cccc(N2CCN(c3nc4ccccc4n4cnnc34)CC2)c1 -36.9%
COc1ccc(-n2c(SC)nc3sc4c(c3c2=O)CCN(C(C)=O)C4)cc1 -5.31%
O=c1c2sc3ccccc3c2n(Cc2cccc(C(F)(F)F)c2)c(=O)n1-c1ccccc1 -1.84%
CC(C)Oc1ccc(CNC(=O)CN2C(=O)c3cccnc3Oc3ccc(Cl)cc32)cc1 -33.6%
CCS(=O)(=O)N1CCc2cc(C(=O)NC(C)c3ccccc3)ccc21 (stereo unspecified) -20.4%
Cc1ccn2c(=O)cc(COc3ccc(NC(=O)C(C)(C)C)cc3)nc2c1 -13.5%
Cc1ccc2c(c1)N(C(=O)Nc1ccc(Br)cc1F)CCO2 -16.5%
COC(=O)c1ccccc1NC(=O)CSc1n[nH]c(C)n1 -10.4%
CC(C)(CC(=O)NCc1ccc(Cl)cc1Cl)CC1=NS(=O)(=O)c2ccccc2N1 7.83%
Cn1c2c(c(=O)n(C)c1=O)C(c1ccccc1C(F)(F)F)CC(=O)N2 (stereo unspecified) -0.539%
CCOC(=O)c1ccc(CN(Cc2ccc(F)cc2)S(=O)(=O)c2ccc(F)c(C(=O)Nc3ccccc3C(F)(F)F)c2)cc1 -7.35%
COC(=O)c1ccc(NS(=O)(=O)c2ccc3c(c2)n(C)c(=O)c(=O)n3C)cc1 -9.13%
COc1ccc(S(=O)(=O)c2cc3cc(C(C)(C)C)cc(O)c3oc2=O)cc1 -34.4%
Cn1c(COc2ccccc2C(C)(C)C)nc2ccccc21 -5.18%
CCCCCn1c(=N)c(S(=O)(=O)c2ccc(C)cc2)cc2c(=O)n3cc(C)ccc3nc21 -13.8%
CCc1ccccc1N(CC)C(=O)C(=O)Nc1ccc2nc3n(c(=O)c2c1)CCCCC3 -0.167%
O=C(c1ccc2c(c1)N(Cc1cccc(Cl)c1)C(=O)c1ccccc1S2(=O)=O)N1CCc2ccccc21 -12.5%
COc1cc(Cl)c(C)cc1NC(=O)C1CCCN(c2ncnc3onc(-c4ccc(F)cc4)c23)C1 (stereo unspecified) -4.45%
CCNC(=O)CC1C(=O)N(c2ccc(F)cc2)C(=O)N1Cc1ccc(OC)c(OC)c1 (stereo unspecified) -0.0347%
Cc1ccc(C(=O)N2CCN(c3cccc(Cl)c3)CC2)cc1-n1c(C)nc2cccnc21 -7.56%
COc1ccc2c(c1)c1c(c(=O)n(-c3ccc(F)c(Cl)c3)c(=O)n1Cc1ccccc1F)n2C -16.5%
CCCCNC(=O)c1ccc2c(c1)NC(=O)C(C(C)C)N2 (stereo unspecified) -3.24%
COC(=O)c1c(-c2ccc(Cl)cc2)noc1N1CCN(c2ccccc2F)CC1 -0.0835%
CCOC(=O)C1=C(CN(CC)Cc2ccccc2)NC(=O)NC1c1ccc(OC)cc1 (stereo unspecified) -18.4%
O=C1CN(C(=O)c2cccc(Br)c2)C(c2ccccc2)c2cc(Cl)ccc2N1 (stereo unspecified) -18.8%
CCOc1cccc(-c2nc3ccccc3c(=O)o2)c1 -2.71%
COc1cccc(C(=O)Nc2nc(-c3nnn(-c4cc(C)ccc4C)c3C)ns2)c1 -8.11%
N#Cc1c(-n2ncnc2-c2cccc(Cl)c2)sc2c1CCCCC2 -7.19%
COc1ccccc1NC(=O)C(=O)c1cc(C)n(-c2cc(C)cc(C)c2)c1C -9.32%
